This is one part of the list.
T1: UNK ZnF1-3 (human, UniProt Q9C0B0 31-174)
T1 sequence: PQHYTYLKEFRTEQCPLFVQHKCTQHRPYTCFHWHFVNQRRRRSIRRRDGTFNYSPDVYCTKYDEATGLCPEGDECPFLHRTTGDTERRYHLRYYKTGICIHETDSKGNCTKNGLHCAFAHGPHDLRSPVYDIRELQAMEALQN

B1: chr7:44244176:44244177:+_ENSG00000106636_ENST00000223369|hu_mus|hu_hu_hu_mus_False|88_98 (ssRNA)
RNA: GGGAGUUCUACAGUCCGACGAUCACUGUCGCUCCGGACGUAGACGUGGCACAGAUACUCUUGUUCUUUGACAGAAGCUCUGCUGCCUUUCCCCGAGCGUUCCACAAUCAGUUGACUUGUAAAGGUCAUGAAUUCCUGCACACUCAACAGAGGAUUGAGCAUCA
B2: chr4:57314706:57314707:+_ENSG00000128050_ENST00000264221|hu_mus|hu_hu_hu_mus_True|18_108 (ssRNA)
RNA: GGGAGUUCUACAGUCCGACGAUCCAGUAUUUCAAAUAUAGCUUGUGUGGCAUGACUCAUGAUGUCCACUUCAGUCUGCCCUAUAACAAGGCCAGCAAAACAGAAUUUUGCAGCAAUCAGCUGUUCCUCAGACCACUGUGGAUCCAACAGAGGAUUGAGCAUCA
B3: chr5:37680062:37680063:+_ENSMUSG00000029121_ENSMUST00000031004|mus_hu|mus_mus_mus_hu_False|28_28 (ssRNA)
RNA: GGGAGUUCUACAGUCCGACGAUCUUUGGGUGUAGCUGGUACCUCGUACACAGGACCGUCAUACAUGCCCCUGGAAACCCCUUGCAAUCCAAAAACCUUAUUCCUGAUCCUGACACGCUGGUACAGGUGCUCCGGGAACGCCUUCAACAGAGGAUUGAGCAUCA
B4: 31795390_31795510_3650_CDS_ENSG00000129493_ENST00000543095|human|control|control (ssRNA)
RNA: GGGAGUUCUACAGUCCGACGAUCUUUACAAAGCUUUAACCACAGGGAGAGUUUUUCCACUGCCAUAGAUGUAAGCAUAUAAUUUAAAGUCUCUUUGAUAUCAUGGCAUAAUCUCUCAUCUGUCUCCUUGUCUAGUAAGAUCAACAACAGAGGAUUGAGCAUCA
B5: chr12:7080122:7080123:+_ENSG00000126749_ENST00000261406|hu_hu|FALSE|FALSE (ssRNA)
RNA: GGGAGUUCUACAGUCCGACGAUCUCGGGGCCGCUUGGGUGGCAGAGCAUCCCAGUCCUGUGCCUGCUCCCCACCGCUUCGUUCACGAGGCUUGAAUCCAUCACUGGGCGCGGCCAUCUUGCAACAAUACCGGAAGUUGCGCUACAACAGAGGAUUGAGCAUCA
B6: chr15:44268054:44268055:+_ENSMUSG00000022338_ENSMUST00000060652|mus_hu|FALSE|FALSE (ssRNA)
RNA: GGGAGUUCUACAGUCCGACGAUCUCCAGUUAGUGAGGCAGAGGGCCCUGGAGGGAGCCCUAGGAAACACCAUUAUCUACAAGUCCCAGACAGCAAAAGGUACUCCACAAGAAACAGAAGGAACUUCCAGUGGUAGCAAAAGCACAACAGAGGAUUGAGCAUCA
B7: chr7:151048522:151048523:+_ENSG00000013374_ENST00000566856|hu_mus|hu_hu_hu_mus_True|28_108 (ssRNA)
RNA: GGGAGUUCUACAGUCCGACGAUCCUGCUUCUUAUUUAUUACGAUCUUGAUGUAAUUUUCUUGAAAUCCGAAAGUUUCAGCUAUUUGACACCUCAGGUCUCUACCAGUGAUGUGCAAGCGGGUCUCCAACAAGCUUUUCUUAUCCAACAGAGGAUUGAGCAUCA
B8: 153192111_153192231_421_CDS_ENSG00000157827_ENST00000288670|human|control|control (ssRNA)
RNA: GGGAGUUCUACAGUCCGACGAUCCACGAUGGCAAAUCGCUCCUCCAGUUCACCUGGCUCUGGCAUCGGCAGCUUCAAAGGCACGUUGUGCGCCCUGAAAUCGGUCUGCUGCGAAUCCAUGCUCCCUGCGUUGCCCAUGUCGGCCAACAGAGGAUUGAGCAUCA
B9: 85901298_85902443_295_CDS_ENSG00000165678_ENST00000372134|human|control|control (ssRNA)
RNA: GGGAGUUCUACAGUCCGACGAUCCCGGAUCCCAAUUCUUGUUUUGGUGGCAUAUUCCCUGCUAGGUGUUAACAGCCAUUGAUUCUUCGUGAUGGAAUUCUUCACAACAGGGGAGGCCUUGGUGAAAGCUGGGUGGAAAACCCUCAACAGAGGAUUGAGCAUCA
B10: chr6:155153589:155153590:+_ENSG00000213079_ENST00000417268|hu_mus|FALSE|FALSE (ssRNA)
RNA: GGGAGUUCUACAGUCCGACGAUCGGGAACAUUGUCUAUACUUGGUCUUCCAGGGGCCAGAAAAGGUCUUUCUGGCUGACUGAAAAGAUCUCCUGGAGGAAAAGGUCCGCGGGGUGGAGGAUGAAGAGCUGCAUCAAGUACCGACAACAGAGGAUUGAGCAUCA
B11: chr11:46765198:46765199:-_ENSG00000175216_ENST00000415402|hu_hu|FALSE|FALSE (ssRNA)
RNA: GGGAGUUCUACAGUCCGACGAUCACAGAAUACAGUGACCCUUCAGGGCGACAGAGAAGAGCUCACAAACUGAAAGGAAAACUAUUAAAGAGUUUCUAAUAUUAACUAUUAAAAAGCUAGGAAAGAUUAGGACAAUUUUACAAACAACAGAGGAUUGAGCAUCA
B12: chr6:40197388:40197389:+_ENSMUSG00000057716_ENSMUST00000061740|mus_mus|mus_mus_mus_hu_False|78_78 (ssRNA)
RNA: GGGAGUUCUACAGUCCGACGAUCGAGACACUGGGGUGGAUUUAUUCCACCUCUGUUUGCUAGCCUCCCACUAAGACUGUUAUUUUGGGAUUCAUGGCCUUGAAUAUCAAGAGGGAAAGGAAGAGGAUGGAAAGAGUCAAGAGUCAACAGAGGAUUGAGCAUCA
B13: chr2:32089778:32089779:+_ENSMUSG00000039262_ENSMUST00000036691|mus_hu|motif|central (ssRNA)
RNA: GGGAGUUCUACAGUCCGACGAUCUAAACAAGCUGCACAUUACACCUCUAGCCAUCGUCUGCCCUUUCAAAUAUCUGGUCGGCAUGGAAAGACAAAGAGGAAAGGCCAAAACAUAAACAAAAGGAAACAAAAACAAAACACAACCAACAGAGGAUUGAGCAUCA
B14: chr2:120842339:120842340:+_ENSMUSG00000023572_ENSMUST00000060455|mus_hu|FALSE|FALSE (ssRNA)
RNA: GGGAGUUCUACAGUCCGACGAUCUUGCUAAAUAUAGAUAGGCACUCCCUUUCAAUCCAGCAAGCAUUCUAGCUCCAUUUUAAAAGCAGGUAUCAGAGCCUGACCAUGACGAUGAGAGGGGAAGAGAGUACAAAUGAGCCUGAACAACAGAGGAUUGAGCAUCA

Each binder was assayed against T1, UNK ZnF1-3 (assay: nsRBNS (natural sequence RNA bind-n-seq); RBNS binding buffer (assumed for nsRBNS): 25 mM Tris pH 7.5, 150 mM KCl, 3 mM MgCl2, 0.01% Triton X-100, 500 ug/ml BSA, 20 U/ml SUPERase-In, 4 C; UNK is unkempt and MSI1 is Musashi-1; names of the RNAs are library labels; protein concentration not given here; high values mean tight binding).

First: B1
Second: B2
The binding signal of the first is lower: 0.544 enrichment R for the first, 1.05 enrichment R for the second.

First: B3
Second: B4
The binding signal of the first is lower: 0.837 enrichment R for the first, 1.19 enrichment R for the second.

Compared with B5, B6 is higher in binding signal: 0.761 enrichment R for the first, 1.44 enrichment R for the second.

First: B7
Second: B8
The binding signal of the first is lower: 0.676 enrichment R for the first, 0.758 enrichment R for the second.

Going from B9 to B10, the binding signal rises from 0.961 enrichment R to 1.75 enrichment R.

Compared with B11, B12 is lower in binding signal: 2.77 enrichment R for the first, 1.24 enrichment R for the second.

First: B13
Second: B14
The binding signal of the first is higher: 3.27 enrichment R for the first, 1.54 enrichment R for the second.
